Results: PubChem BioAssay AID1768 (National Center for Advancing Translational Sciences (NCATS), 2009)
The campaign covered roughly 270,000 compounds. About 620 (0.23%) were called active. The inconclusive results got no clear call from the source; some entries with a clear call stand among them for comparison. The call rests on the fitted dose curve; in most records, active means well fitted inhibition curve with a large enough effect in the polarisation, with a control signal flat (not every such curve was filed as active); inconclusive means small, poorly fitted or top-dose-only effect, or effect the other way, or a change in a side signal; inactive means no such curve, though single readings can be large or run the other way; the % refers to the polarisation. Potencies beside an inconclusive call are fits to weak or partial responses and may not hold up. “Side channel” marks fits to a control or component signal instead of the main read-out.

molecular target: Menin (Homo sapiens) (UniProt O00255); experiment: qHTS Assay for Inhibitors Targeting the Menin-MLL Interaction in MLL Related Leukemias: Competition With Texas Red Labeled MLL-derived Mutant Peptide; conditions: fluorescence polarization; FP activity change, negative = inhibition: at 61.6 µM (top of the series); on FP activity change, negative = inhibition: % of control where 0% means no effect
Potency means the concentration at half of the fitted maximal effect; tags describe the fitted curve by direction and shape or compound fluorescence and quenching.

Chain of UniProt O00255 (O00255 whole entry, looked up): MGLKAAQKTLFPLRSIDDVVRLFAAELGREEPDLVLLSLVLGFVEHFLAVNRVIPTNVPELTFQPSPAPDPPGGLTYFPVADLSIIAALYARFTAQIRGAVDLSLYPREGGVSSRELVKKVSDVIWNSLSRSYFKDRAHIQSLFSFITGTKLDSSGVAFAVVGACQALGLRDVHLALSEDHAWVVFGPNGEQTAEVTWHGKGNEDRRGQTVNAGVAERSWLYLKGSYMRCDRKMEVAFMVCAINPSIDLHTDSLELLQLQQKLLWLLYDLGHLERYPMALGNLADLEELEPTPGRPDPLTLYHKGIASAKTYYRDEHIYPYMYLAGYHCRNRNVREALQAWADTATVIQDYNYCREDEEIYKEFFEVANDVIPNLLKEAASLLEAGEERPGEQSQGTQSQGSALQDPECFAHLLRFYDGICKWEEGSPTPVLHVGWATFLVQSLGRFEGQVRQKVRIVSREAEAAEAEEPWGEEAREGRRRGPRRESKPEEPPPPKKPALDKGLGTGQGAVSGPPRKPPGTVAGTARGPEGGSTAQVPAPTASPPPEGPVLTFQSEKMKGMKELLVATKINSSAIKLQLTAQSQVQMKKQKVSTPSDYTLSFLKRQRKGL

Potency, inactive:
CC(C)(C)c1ccc(C(=O)NC(=S)Nc2ccc(N3CCOCC3)cc2)cc1

Potency, inconclusive:
O=C(CN1C(=O)NC2(CCOc3ccccc32)C1=O)Nc1cccc(Cl)c1 (stereo unspecified) 11.2 µM [quencher, side channel, partial curve]
O=C(N/N=C/c1ccc(Sc2nc3ccccc3s2)c([N+](=O)[O-])c1)c1ccccn1 8.91 µM [quencher, side channel, partial curve]
Brc1ccc(N=NNc2ccccc2)cc1 25.1 µM [quencher, partial curve]
Cc1cc(C)cc(N(CC(=O)NC2CCCC2)C(=O)CCC(=O)Nc2nccs2)c1 31.6 µM [fluorescent, side channel, partial curve]
CCN(CC)CCn1cnc2c1c(=O)[nH]c(=O)n2Cc1ccccc1 10 µM [inhibitor, partial curve]
COc1nc(N(CC(N)=O)S(=O)(=O)c2ccccc2)nc(C)c1Cl 8.91 µM [inhibitor, full curve, poor fit]
Cc1noc(NS(=O)(=O)c2ccc(NC(=O)CSc3nc4c(cc3C#N)CCCCC4)cc2)c1C 25.1 µM [quencher, side channel, single point]
CC(=O)Nc1ccc(C(=O)COC(=O)CCN2C(=O)C3CC=CCC3C2=O)cc1 (stereo unspecified) 22.4 µM [quencher, side channel, partial curve]
O=C(CNC(c1ccccc1)c1ccccc1)NCc1ccccc1Cl 10 µM [fluorescent, side channel, partial curve]
COc1ccc(S(=O)(=O)N2CCN(C(=O)c3ccco3)CC2)c(C)c1C 39.8 µM [inhibitor, single point]
CCCCCCCCCCCCCCCC[n+]1cccc2ccccc21 6.31 µM [inhibitor, partial curve]
c1ccc(CSc2nnc(-c3ccco3)c(-c3ccco3)n2)cc1 14.1 µM [quencher, side channel, partial curve]
COc1ccc(Cl)cc1NC(=S)NCc1cccs1 28.2 µM [quencher, side channel, partial curve]
C/C(=N\NC(=O)CNc1cccc2ccccc12)c1ccc(Br)s1 28.2 µM [quencher, side channel, single point]

FP activity change, negative = inhibition, inactive:
CCn1c(/C=N/n2cnnc2)nc2ccccc21 -3.5% [at 11.7 µM]
